This is one part of the list.

The labels stand for the following.
T1: UNK ZnF1-3 (human, UniProt Q9C0B0 31-174)
T1 sequence: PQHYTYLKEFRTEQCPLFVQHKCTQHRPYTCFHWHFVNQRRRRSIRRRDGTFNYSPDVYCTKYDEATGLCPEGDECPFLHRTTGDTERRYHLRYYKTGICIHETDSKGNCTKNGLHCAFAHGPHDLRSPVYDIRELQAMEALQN

B1: chr5:60455605:60455606:-_ENSG00000188725_ENST00000339020|hu_mus|motif|central (ssRNA)
RNA: GGGAGUUCUACAGUCCGACGAUCAACUUAAAUACUUGCCAGUAGAUACCAACAAACUUUUAUUUCCAAGCCUAAAAGUUACGGUAGUAUUGAGGUCAGAACAUGACUCUUCUGUACGGUCAGAUUAAUUCACUAAAUAAUACUCAACAGAGGAUUGAGCAUCA
B2: 39875923_39878623_2742_CDS_ENSG00000121892_ENST00000303538|human|control|control (ssRNA)
RNA: GGGAGUUCUACAGUCCGACGAUCAAGCUGGACUUCUUUAUUUGUGAAUAUGGCGUGUAUACAGUGCACAGCCUGUUUUGCUUGGUGUGGAGUACCCCUCUUUGCUUUUUGAUGUAAAAUGGGAAUUAAGGUCGAUCGUAUCUGCAACAGAGGAUUGAGCAUCA
B3: chr1:66463027:66463028:+_ENSMUSG00000015222_ENSMUST00000114013|mus_mus|mus_mus_mus_hu_True|48_48 (ssRNA)
RNA: GGGAGUUCUACAGUCCGACGAUCUUUUCUUUCAGGAGUGGAAAUUCUGCCUCUCCCGGUUUUAAAAGGCUUUUCUUUUCUAUGUUUCUCGAGAGACGAUCUCCGAGCUUCCUUUUCAGCUUUCUCCUCUUUAGGAAUAGUUUCCAACAGAGGAUUGAGCAUCA
B4: chr19:29217640:29217641:+_ENSMUSG00000024785_ENSMUST00000064393|mus_mus|FALSE|FALSE (ssRNA)
RNA: GGGAGUUCUACAGUCCGACGAUCCUUGGUUUCAACUUUAAACAUAACCUGGAAAAAGCUCUUCAGAUGCCGCAAAAAUUCUAUCGUGUAGGGUGAGAGUGGUCCCAGCAGGACUUUGGAAACGUCCUGCUGUCCAAGGGUCAUCAACAGAGGAUUGAGCAUCA
B5: 74176515_74177363_2164_3pUTR_ENSMUSG00000034799_ENSMUST00000030170|mouse|control|control (ssRNA)
RNA: GGGAGUUCUACAGUCCGACGAUCGAUCCUGUCUUGUCCUUGGCCUGCAAGCCCUGGGCACAGACCACUGUGAUGCUAAUUUUGGCAGACCACUUGGAUGUGCCGUCCAGCACACUCUGCUUGACAGCUUUCAUCUGCUGUGUGCAACAGAGGAUUGAGCAUCA
B6: chr15:83807826:83807827:-_ENSG00000166503_ENST00000299633|hu_hu|motif|central (ssRNA)
RNA: GGGAGUUCUACAGUCCGACGAUCGGGCAACUUCAUGCAACCAAAUAACAUGAAAUUAAAUCAGUAACUUUUAAAAAAGGCGGAAAUGUCUUUUCCCCCCGAAACACAACAGAGAGGAAUAUGAAUAAUGUACAUACAAACUGGCAACAGAGGAUUGAGCAUCA
B7: chr2:69570450:69570451:+_ENSMUSG00000042133_ENSMUST00000090858|mus_mus|FALSE|FALSE (ssRNA)
RNA: GGGAGUUCUACAGUCCGACGAUCGCAAAGGCAGCGAAAGUUCUCACACGUUUUGGGACAUACAUCGGAAAAUAAUUCAAAGACAACUCUUCCAGCAGGUUGAUUAUUAAUGGCAAUGUCAAAAAAACACCGAGGACGCUGGACCAACAGAGGAUUGAGCAUCA
B8: chr7:35674789:35674790:-_ENSG00000122557_ENST00000396081|hu_mus|FALSE|FALSE (ssRNA)
RNA: GGGAGUUCUACAGUCCGACGAUCUCCAGCUUGGUGUAAAUAAACCAGCAGCAUGGCUCCCAUUACCAUGAUAAACCGACUGAAAGAAGAAUAGAAGUAUACGAUGCUGAGGAGGACGGCAGCUCGGGAGAACGUGUACACCCACAACAGAGGAUUGAGCAUCA
B9: chr16:75203323:75203324:+_ENSG00000184517_ENST00000393430|hu_mus|FALSE|FALSE (ssRNA)
RNA: GGGAGUUCUACAGUCCGACGAUCAAGUGGUUCCCCAAAUCCACCACACCCGUCUCCUUUCUUUCUUACACAGUUUCUACUGCUAAGUAAGUCUGAAUUGUACUUCAAAGUUUUUUCAUAUAAAUCAUAUUUAUAGGGAACUUGCAACAGAGGAUUGAGCAUCA
B10: chr15:40462788:40462789:+_ENSG00000156970_ENST00000287598|hu_hu|FALSE|FALSE (ssRNA)
RNA: GGGAGUUCUACAGUCCGACGAUCAAAUCGAGGAUCACUAUAAUAUCGUUUUUCUCCUUGUAGUGCUUCUACAGCUCUUUCUAAUAACGUUGACAUAUUACUCUCCUUCCCACCUUGAGGAUAGUUCUGCUCUGUCCAGCUGAUCAACAGAGGAUUGAGCAUCA
B11: chr7:140404665:140404666:+_ENSG00000090266_ENST00000247866|hu_hu|hu_hu_hu_mus_False|18_28 (ssRNA)
RNA: GGGAGUUCUACAGUCCGACGAUCUGCUCCUACUCGUCCAGAGAGUUUACAGUGUCAGUCCUCGUCAUCAGGAGGGAUUCCCAGUUCUUCAUCUGUCCACUGUGAAGGAUCAGGAUACGGAAAGUGACCCAGCACAGCAUCCGACAACAGAGGAUUGAGCAUCA
B12: chr1:85787162:85787163:-_ENSG00000153904_ENST00000284031|hu_hu|FALSE|FALSE (ssRNA)
RNA: GGGAGUUCUACAGUCCGACGAUCGCCGGCAACCGGGGGGGACUCUGCAGCUCAGGAGUCUACUUUCUUGUUAAUUAAAACUGAGCAGCAGGUGAGCAGCCCAUCCACCUUUUCCAGUUCAGACAUGCUCACGGGGAUCAGCAUCAACAGAGGAUUGAGCAUCA
B13: chr7:135850644:135850645:-_ENSMUSG00000048170_ENSMUST00000057557|mus_hu|motif|central (ssRNA)
RNA: GGGAGUUCUACAGUCCGACGAUCAUACAAGUGUUCUGUGAAGGUACUAUUCCGUGGGCAACCACUCAAGUUAACUGUAAAUUUUCCGGGUGGAAGGACAUCUCUUCUUGUAUAUACUGUGGAGAUGAGAUGUAAUAUAAGGUACAACAGAGGAUUGAGCAUCA
B14: chr7:90019630:90019631:+_ENSMUSG00000057706_ENSMUST00000082237|mus_mus|motif|central (ssRNA)
RNA: GGGAGUUCUACAGUCCGACGAUCUAUAUCACUGAAUAGAAAAUAUGCUGGGUGAAGCAGAUCUAGAAGAUUUGUCUGAACCGGUAAAAUCUCCAUCCCAACAGAAUACUGCUCAAAACGUUAUACAUUUUAUGGUUUGUAAUCCAACAGAGGAUUGAGCAUCA
B15: chr3:75345182:75345183:-_ENSMUSG00000027835_ENSMUST00000161137|mus_hu|motif|central (ssRNA)
RNA: GGGAGUUCUACAGUCCGACGAUCAUGUGGUCUCAGCUUCAUUCUUCAUCUCUUCCAUUGUCAUCCUCAUUCAAAAGCCAACGGCAGUUGAAAAAGCAGUGCUAAAAUGCAGAGGAAUCUUCAUUCACUGCAAUAUUUCUUCUCCAACAGAGGAUUGAGCAUCA
B16: chr8:74585381:74585382:-_ENSG00000040341_ENST00000355780|hu_mus|motif|central (ssRNA)
RNA: GGGAGUUCUACAGUCCGACGAUCGGGCAUUGGGCAAUGAUACCUCUGAUUGUACAUGCCCCGGAAGUUGUAGUUAGCUCGGUAAUUUGGGAAUGGCUUUGGAUCUAGUGGCCUGUAGAUGGCAGGCUCUCCCCUUUUCAUAGCCAACAGAGGAUUGAGCAUCA
B17: chr16:71807222:71807223:-_ENSG00000166747_ENST00000299980|perfect_dup|motif|central (ssRNA)
RNA: GGGAGUUCUACAGUCCGACGAUCUCCCGCAAGAUCUCUGCACAUCUCCGAGGAGCCCAUGCAGCCGAGGGUACAAAGUGCGGGCCCCUGCACAAACUGCGUGCUAUGAUUAAGAUCAUUCUUGAUACAGUUGGUCAUGAGAAGCAACAGAGGAUUGAGCAUCA
B18: chr7:135612270:135612271:-_ENSG00000105887_ENST00000393085|hu_mus|FALSE|FALSE (ssRNA)
RNA: GGGAGUUCUACAGUCCGACGAUCGUUUUUUUCUGAGAUGUUAAAUAGUACUUCAGUGGAAAACAAAACUUAACCUUUUAUUAAUGCGUGUUGUACCAAAAGCAGACAUUUUAGCUUCAUUUAUUCAAAAAUAUUAACAUUAAGCAACAGAGGAUUGAGCAUCA
B19: chr5:93601047:93601048:+_ENSMUSG00000058013_ENSMUST00000074733|mus_hu|motif|central (ssRNA)
RNA: GGGAGUUCUACAGUCCGACGAUCCAUGAUCCAACCUUUAAGACCUCUAUCUGUGAGAGGAUCAAGGAUGCACCAGUAAAUGUGAACGGAUCAUAGUUUUCUCAUACCAGUCUACUCCAACUUGGCCAGGAUUGAAGGCAGGCACAACAGAGGAUUGAGCAUCA
B20: chr4:175180916:175180917:-_ENSG00000164117_ENST00000503293|hu_mus|motif|central (ssRNA)
RNA: GGGAGUUCUACAGUCCGACGAUCAUUAAAGGUGAGGCUUCCCUCAUCUAGCUGCAUAUACAAUUUUCUAAAAGAAAAUCCGGAAGGUGGGUUCUUAUUGUAUAUAGAGCAGUGACCCCAUGUAGAUUUACACAACCCUUGCCACAACAGAGGAUUGAGCAUCA
B21: chr4:174295105:174295106:+_ENSG00000164105_ENST00000296504|hu_hu|FALSE|FALSE (ssRNA)
RNA: GGGAGUUCUACAGUCCGACGAUCUUGUGCUUUAUUAAGUCCUGGUCUGGUUGGUAGCUUGAAGUGUCUUUUGUAUCUCCUAAGUGUAUUUACUUGUAAUUGGUAUAAAUCAACCUCUGGGGUAUCAAUAUCUUGAACAGGUGACAACAGAGGAUUGAGCAUCA
B22: chr14:37946427:37946428:-_ENSMUSG00000041028_ENSMUST00000165649|mus_hu|FALSE|FALSE (ssRNA)
RNA: GGGAGUUCUACAGUCCGACGAUCCGAUGGUUCCAAUGCUGCCUCUUUGAGUUCUUGGCCAGUUCUCCCACGCCGGAUCCCAAUUCUUGUUUUGGUGGCAUAUUCCCUGCUAGGUGUUAACAGCCAUUGAUUCUUCGUGAUGGACAACAGAGGAUUGAGCAUCA

The assay has as its target T1, UNK ZnF1-3. In words: nsRBNS (natural sequence RNA bind-n-seq); RBNS binding buffer (assumed for nsRBNS): 25 mM Tris pH 7.5, 150 mM KCl, 3 mM MgCl2, 0.01% Triton X-100, 500 ug/ml BSA, 20 U/ml SUPERase-In, 4 C; UNK is unkempt and MSI1 is Musashi-1; names of the RNAs are library labels; protein concentration not given here; high values mean tight binding.
On to B1, for which the binding signal was 0.497 enrichment R.
The value for B2 was 0.742 enrichment R.
With B3 the figure was 0.402 enrichment R; with B4, 1.4 enrichment R; with B5, 0.369 enrichment R.
As for B6, the binding signal worked out at 2.32 enrichment R.
The value for B7 was 1.65 enrichment R.
The value for B8 was 2.16 enrichment R; that for B9 was 1.18 enrichment R.
The value for B10 was 0.862 enrichment R.
As to B11, the binding signal amounted to 1.27 enrichment R.
Molecule B12 returned a binding signal of 1.66 enrichment R.
With B13 the figure was 1.4 enrichment R; with B14, 0.794 enrichment R.
The value for B15 was 1.17 enrichment R.
The value for B16 was 0.896 enrichment R; that for B17 was 1.33 enrichment R; that for B18 was 1.04 enrichment R.
B19 had a binding signal of 1.34 enrichment R.
The value for B20 was 1.21 enrichment R; that for B21 was 0.907 enrichment R; that for B22 was 0.494 enrichment R.
